Measured values taken from US7816326B2, “Sulfur compounds as inhibitors of hepatitis C virus NS3 serine protease” (Schering Corporation, priority 2004, dated 2010).

Target: Recombinant heterodimeric HCV NS3/NS4A protease (strain 1a) (Hepatitis C virus genotype 1a, UniProt P27958)
Assay: Spectrophotometric assay for HCV protease inhibitory activity
Format: biochemical
Conditions: HCV serine protease inhibitory activity ranges; read-out: Ki* Range

Compound	Ki [nM]
CCC[C@H](NC(=O)[C@@H]1[C@@H]2[C@H](CN1C(=O)[C@@H](NC(=O)NC1([C@H](C)S(=O)(=O)N(C)C)CCCCC1)C1(C)CCCCC1)C2(C)C)C(=O)C(=O)NC1CC1 [compound 1413]	< 75
C[C@@H](C1(NC(=O)N[C@H](C(=O)N2C[C@H]3[C@@H]([C@H]2C(=O)N[C@@H](CC2CC2)C(=O)C(=O)NC2CC2)C3(C)C)C2(C)CCCCC2)CCCCC1)S(=O)(=O)N(C)C [compound 1414]	< 75
CCCC[C@H](NC(=O)[C@@H]1[C@@H]2[C@H](CN1C(=O)[C@@H](NC(=O)NC1([C@@H](C)S(=O)(=O)N(C)C3CC3)CCCCC1)C(C)(C)C)C2(C)C)C(=O)C(=O)NC1CC1 [compound 1415]	< 75
C[C@H](C1(NC(=O)N[C@H](C(=O)N2C[C@H]3[C@@H]([C@H]2C(=O)N[C@@H](CCC2CC2)C(=O)C(=O)NC2CC2)C3(C)C)C(C)(C)C)CCCCC1)S(=O)(=O)N(C)C1CC1 [compound 1416]	< 75
CCC[C@H](NC(=O)[C@@H]1[C@@H]2[C@H](CN1C(=O)[C@@H](NC(=O)NC1([C@@H](C)S(=O)(=O)N(C)C3CC3)CCCCC1)C(C)(C)C)C2(C)C)C(=O)C(=O)NC1CC1 [compound 1417]	< 75
C[C@H](C1(NC(=O)N[C@H](C(=O)N2C[C@H]3[C@@H]([C@H]2C(=O)N[C@@H](CC2CC2)C(=O)C(=O)NC2CC2)C3(C)C)C(C)(C)C)CCCCC1)S(=O)(=O)N(C)C1CC1 [compound 1418]	< 75
CCCC[C@H](NC(=O)[C@@H]1[C@@H]2[C@H](CN1C(=O)[C@@H](NC(=O)NC1([C@H](C)S(=O)(=O)N(C)C3CC3)CCCCC1)C(C)(C)C)C2(C)C)C(=O)C(=O)NC1CC1 [compound 1419]	< 75
C[C@@H](C1(NC(=O)N[C@H](C(=O)N2C[C@H]3[C@@H]([C@H]2C(=O)N[C@@H](CCC2CC2)C(=O)C(=O)NC2CC2)C3(C)C)C(C)(C)C)CCCCC1)S(=O)(=O)N(C)C1CC1 [compound 1420]	< 75
CCC[C@H](NC(=O)[C@@H]1[C@@H]2[C@H](CN1C(=O)[C@@H](NC(=O)NC1([C@H](C)S(=O)(=O)N(C)C3CC3)CCCCC1)C(C)(C)C)C2(C)C)C(=O)C(=O)NC1CC1 [compound 1421]	< 75
C[C@@H](C1(NC(=O)N[C@H](C(=O)N2C[C@H]3[C@@H]([C@H]2C(=O)N[C@@H](CC2CC2)C(=O)C(=O)NC2CC2)C3(C)C)C(C)(C)C)CCCCC1)S(=O)(=O)N(C)C1CC1 [compound 1422]	< 75
